The source of these data is the supplement of paper PMC9446081.

Out of some 39,000 compounds screened, about 220 (0.56%) showed activity. The list shows a part of the results.
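Also: static incubation at 37 °C against the wild-type strain, values averaged over two biological replicates.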

The test system of this experiment is Escherichia coli K-12 BW25113. The experiment is described as follows: relative growth (OD600 normalised to plate interquartile mean) (fraction); higher = less growth inhibition, active = 0.2 or less. To be noted: 50 µM; LB; incubation time: overnight (16-24 h).
On to `C[C@@H]1CN([C@H](C)CO)C(=O)c2cc(NS(=O)(=O)c3cn(C)cn3)ccc2O[C@@H](C)CCCCO[C@@H]1CN(C)S(=O)(=O)c1cn(C)cn1`, for which the relative growth is inactive: 0.991. For `O=C([O-])C(O)C(O)C(O)C(O)CO.[Na+]` (stereo not given) the value was inactive: 0.889.

On to `COc1ccc(S(=O)(=O)N(C)C[C@H]2Oc3c(NC(=O)Nc4cccc5ccccc45)cccc3C(=O)N([C@@H](C)CO)C[C@@H]2C)cc1`, for which the relative growth was inactive: 1.04. With `C[C@@H]1CN([C@@H](C)CO)C(=O)c2cc(NC(=O)NC3CCCCC3)ccc2O[C@@H]1CN(C)S(=O)(=O)c1cn(C)cn1` the figure was inactive: 0.993; with `CCCN(C)C[C@H]1Oc2cc(C#Cc3ccc(OC)cc3)ccc2S(=O)(=O)N([C@H](C)CO)C[C@H]1C`, inactive: 0.984. For `C[C@H](CO)N1C[C@H](C)[C@@H](CN(C)Cc2ccccc2C(F)(F)F)OCc2ccccc2-c2c(n(C)c3ccccc23)C1=O` the value was inactive: 1; for `C[C@H]1CN([C@@H](C)CO)C(=O)c2cc(NS(=O)(=O)c3ccccc3)ccc2O[C@@H]1CN(C)S(=O)(=O)c1cn(C)cn1`, inactive: 1.01; for `Cc1noc(C)c1S(=O)(=O)N(C)C[C@@H]1OCCCC[C@H](C)Oc2ccc(N(C)C)cc2C(=O)N([C@H](C)CO)C[C@H]1C`, inactive: 0.985. With `COc1ccc(S(=O)(=O)N2C[C@H](O)COC[C@@H]3O[C@@H](CC(=O)NCc4ccc(Cl)c(Cl)c4)CC[C@H]32)cc1` the figure was inactive: 0.981; with `C[C@@H]1CN([C@H](C)CO)C(=O)c2cccc(NS(C)(=O)=O)c2O[C@H]1CN(C)Cc1ccc(C(F)(F)F)cc1`, inactive: 0.973. With `Cc1noc(C)c1S(=O)(=O)N(C)C[C@H]1Oc2c(NS(=O)(=O)c3cn(C)cn3)cccc2C(=O)N([C@@H](C)CO)C[C@H]1C`, the relative growth is inactive: 1.02. With `C[C@H]1CN([C@@H](C)CO)C(=O)c2cc(NS(=O)(=O)c3ccc(Cl)cc3)ccc2O[C@H]1CN(C)Cc1ccc(-c2ccccc2)cc1` the figure was inactive: 0.98. With `C[C@H](CO)N1C[C@H](C)[C@@H](CN(C)C(=O)Nc2ccc3c(c2)OCO3)Oc2ccc(NS(=O)(=O)c3cn(C)cn3)cc2C1=O` the figure was inactive: 0.921; with `C[C@@H]1CN([C@@H](C)CO)C(=O)c2cc(NC(=O)Cn3cnnn3)ccc2O[C@H]1CN(C)Cc1ccc2c(c1)OCO2`, inactive: 0.996.

Take `O=CN[C@H](Cc1ccccc1)C(=O)O`: the relative growth was inactive: 1. Consider `Cc1noc(C)c1NC(=O)Nc1ccc2c(c1)C(=O)N([C@@H](C)CO)C[C@H](C)[C@H](CN(C)Cc1ccc(Cl)c(Cl)c1)OCCCC[C@@H](C)O2`, for which the relative growth is inactive: 1.01. For `C[C@@H]1CN([C@@H](C)CO)S(=O)(=O)c2ccc(Br)cc2O[C@H]1CN(C)Cc1ccc(-c2ccccc2)cc1` the value was inactive: 1.02; for `Cc1cnc(C(=O)N2C[C@@H]3COC[C@@]3(CNS(C)(=O)=O)C2)cn1`, inactive: 1. For `C[C@H]1CN([C@@H](C)CO)C(=O)c2cccc(NC(=O)Nc3ccc(C(F)(F)F)cc3)c2O[C@@H]1CN(C)Cc1ccc(Oc2ccccc2)cc1` the value was inactive: 0.981. On to `O=C(CCCCCCC(=O)N/N=C/c1cc(I)cc(I)c1O)NO`, for which the relative growth is inactive: 0.835. With `CC(=O)OCN1CCN(COC(C)=O)C1=O` the figure was inactive: 1; with `COc1ccc(N2CCN(c3nc(NCCO)nc(N4CCOCC4)n3)CC2)cc1`, inactive: 0.994; with `CC(C)NC(=O)Nc1ccc2c(c1)CC(=O)N([C@H](C)CO)C[C@H](C)[C@H](CN(C)Cc1ccc(-c3ccccc3)cc1)O2`, inactive: 0.985. With `O=C(C[C@@H]1C[C@H]2c3cc(NC(=O)Nc4ccccc4F)ccc3O[C@H]2[C@@H](CO)O1)NCc1ccc(Oc2ccccc2)cc1` the figure was inactive: 1.01.

Take `C[C@H](CO)N1C[C@H](C)[C@H](CN(C)S(=O)(=O)c2cccs2)Oc2ccc(NS(=O)(=O)c3ccc(F)cc3)cc2C1=O`: the relative growth is inactive: 1.01. `C[C@H]1CN([C@@H](C)CO)C(=O)c2cccc(NS(=O)(=O)c3ccc(F)cc3)c2O[C@@H]1CN(C)S(=O)(=O)c1cn(C)cn1`: the relative growth is inactive: 1.01. For `Cn1ncc2c(=O)nc[nH]c21` the value was inactive: 0.962; for `CC(C)NC(=O)Nc1ccc2c(c1)C(=O)N([C@H](C)CO)C[C@H](C)[C@H](CN(C)Cc1ccc(C(=O)Nc3ccccc3N)cc1)OCCCC[C@@H](C)O2`, inactive: 0.97; for `C[C@H]1CN([C@@H](C)CO)C(=O)c2cccc(NC(=O)c3ccc(-c4nccs4)cc3)c2O[C@H]1CN(C)Cc1ccc(Oc2ccccc2)cc1`, inactive: 1. For `CO[C@@H]1CN(C)C(=O)c2ccc(NS(=O)(=O)c3ccccc3C)cc2OC[C@H](C)N(S(C)(=O)=O)C[C@H]1C` the value was inactive: 1; for `C[C@@H]1CN([C@@H](C)CO)S(=O)(=O)c2ccc(-c3ccncc3)cc2O[C@@H]1CN(C)S(=O)(=O)c1ccccc1F`, inactive: 0.997. With `C[C@@H]1CN([C@H](C)CO)C(=O)c2cc(NS(=O)(=O)c3ccc(Cl)cc3)ccc2O[C@@H](C)CCCCO[C@@H]1CN(C)C(=O)c1ccccc1`, the relative growth was inactive: 1.01. For `COc1ccc(C#Cc2ccc3c(c2)[C@]2(C(=O)N3)[C@H](C(N)=O)[C@H]3C(=O)O[C@H](c4ccccc4)[C@H](c4ccccc4)N3[C@@H]2c2ccc(OCCO)cc2)cc1` the value was inactive: 1.05; for `C[C@@H]1CN([C@@H](C)CO)C(=O)c2cc(NC(=O)Nc3ccccc3)ccc2O[C@@H](C)CCCCO[C@@H]1CN(C)C(=O)Cc1ccccc1`, inactive: 0.999. In the case of `Cc1ccc(S(=O)(=O)N(C)C[C@H]2Oc3ncc(C#CC4(O)CCCC4)cc3C(=O)N([C@@H](C)CO)C[C@H]2C)cc1`, the relative growth was inactive: 1.01. `COCCNC(=O)C[C@H]1C[C@H]2c3cc(NC(=O)CN(C)C)ccc3O[C@H]2[C@@H](CO)O1`: the relative growth was inactive: 1.02. Consider `C[C@@H]1CN([C@@H](C)CO)C(=O)c2cc(-c3cccnc3)cnc2O[C@@H]1CN(C)Cc1ccc(-c2ccccc2)cc1`, for which the relative growth was inactive: 1.01.

As to `COc1ccncc1-c1ccccc1CN(C(=O)c1ccc(-c2ccc(C#N)cc2)o1)c1ccc(N2CCNCC2)cc1`, the relative growth is inactive: 0.975. In the case of `Cc1noc(C)c1S(=O)(=O)Nc1ccc2c(c1)C(=O)N([C@H](C)CO)C[C@H](C)[C@@H](CN(C)Cc1ccc(C(=O)Nc3ccccc3N)cc1)OCCCC[C@@H](C)O2`, the relative growth was inactive: 1.01.

Take `C[C@@H]1CN([C@H](C)CO)C(=O)c2cccc(NC(=O)c3ccncc3)c2O[C@H]1CN(C)C(=O)Nc1ccc2c(c1)OCO2`: the relative growth is inactive: 0.987.

Regarding `COc1ccc(NC(=O)Nc2ccc3c(c2)C(=O)N([C@H](C)CO)C[C@H](C)[C@H](CN(C)C(=O)c2ccccc2)OCCCC[C@H](C)O3)cc1`, the relative growth was inactive: 1.03.

For `COc1ccc2c(c1)OCC(Cc1ccc(OC)c(OC)c1)C2=O` (stereo not given), the relative growth was inactive: 1.11. With `C[C@H](CO)N1C[C@H](C)[C@H](CN(C)C(=O)NC2CCCCC2)Oc2ccc(NC(=O)CCCN(C)C)cc2C1=O` the figure was inactive: 1; with `O=C(C[C@H]1C=C[C@H](NS(=O)(=O)c2ccc(F)cc2)[C@@H](CO)O1)NCCN1CCCCC1`, inactive: 1; with `CO[C@H]1CN(C)C(=O)c2cc(NS(C)(=O)=O)ccc2OC[C@H](C)N(C(=O)CN(C)C)C[C@@H]1C`, inactive: 0.958. For `O=C(O)Cn1cc(Br)c(=O)[nH]c1=O`, the relative growth is inactive: 1.05. For `COCC(=O)Nc1ccc2c(c1)C(=O)N(C)C[C@H](OC)[C@H](C)CN(C(=O)c1ccccc1F)[C@@H](C)CO2` the value was inactive: 0.997. With `COc1ccc(S(=O)(=O)Nc2ccc3c(c2)C(=O)N([C@H](C)CO)C[C@H](C)[C@H](CN(C)C(=O)Nc2ccc(F)cc2)OCCCC[C@@H](C)O3)cc1` the figure was inactive: 1.01; with `COc1ccc(NC(=O)Nc2ccc3c(c2)C(=O)N([C@H](C)CO)C[C@H](C)[C@@H](CN(C)CC2CCCCC2)OCCCC[C@@H](C)O3)cc1`, inactive: 0.981; with `CN1C(=O)c2cc(NC(=O)c3cccs3)ccc2OC[C@@H]2O[C@@H](CC(=O)NCC(F)(F)F)CC[C@H]21`, inactive: 1.01.

In the case of `Cc1ccccc1S(=O)(=O)N1C[C@@H](O)COC[C@@H]2O[C@H](CC(=O)NCCc3ccncc3)CC[C@H]21`, the relative growth is inactive: 0.991. With `C[C@@H]1CN([C@@H](C)CO)C(=O)c2cc(NC(=O)Nc3ccc4c(c3)OCO4)ccc2O[C@@H](C)CCCCO[C@@H]1CN(C)S(=O)(=O)c1ccc(Cl)cc1` the figure was inactive: 1.05; with `O=C(N[C@H]1C=C[C@@H](CC(=O)N2CCOCC2)O[C@H]1CO)c1ccc2c(c1)OCO2`, inactive: 1.01; with `COCC(=O)Nc1ccc2c(c1)C(=O)N(C)C[C@@H](OC)[C@H](C)CN(Cc1cccc(F)c1)[C@H](C)CO2`, inactive: 1.02. For `COc1ccc(S(=O)(=O)Nc2cccc3c2O[C@@H](CN(C)C(=O)Nc2cccc4ccccc24)[C@H](C)CN([C@H](C)CO)C3=O)cc1` the value was inactive: 0.995; for `O=C(Nc1cccc2cccnc12)[C@@H]1[C@H](c2ccc(-c3ccccc3)cc2)CC(=O)N1C(=O)OCc1ccccc1`, inactive: 1.05; for `CCOC(=O)[C@@H](N)Cc1ccc(O)c(O)c1`, inactive: 0.983.

As to `C[C@H](CO)N1C[C@H](C)[C@H](CN(C)C(=O)Nc2cccc(Oc3ccccn3)c2)OCc2cnnn2CCCC1=O`, the relative growth is inactive: 0.989.

On to `C[C@@H]1CN([C@@H](C)CO)C(=O)Cc2cc(NC(=O)CCCN(C)C)ccc2O[C@@H]1CN(C)S(=O)(=O)c1ccccc1`, for which the relative growth is inactive: 0.988.

With `C[C@H]1CN([C@@H](C)CO)C(=O)Cc2cc(NC(=O)CCCCCC(=O)Nc3ccccc3N)ccc2O[C@@H]1CN(C)Cc1ccc(Cl)c(Cl)c1`, the relative growth was inactive: 0.982.
